Results as given in the RNAGym collection of RNA variant scans (doi:10.1093/nar/gkz1192).
The source gives no read counts; variants with many changes may rest on few reads.

B1: CPEB3 Ribozyme (parent)
chain: UAACAGGGGGCCACAGCAGAAGCGUUCACGUCGCAGCCCCUGUCAGAUUCUGGUGAAUCUGCGAAUUCUGCUGUAUAUCUC

Variants of: B1
Assay: self-cleavage, relative activity (ratio to wild type); higher = more cleavage; in vitro, sequencing
Procedure, shortened: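 Libraries of CPEB3 self-cleaving ribozyme mutants came from rounds of error-prone PCR and carried barcodes, which DNA sequencing matched to variants. In vitro transcription used T7 RNA polymerase at 37°C for 5 hours, with a further 15 min in DNase I before EDTA stopped the reaction; the ribozymes cleaved during both steps. The RNA was reverse transcribed with template switching and sequenced on Illumina. Relative activity is the cleaved/total read fraction of a variant divided by that of the unmutated ribozyme, averaged over three batches with at least 5 reads.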

For UAGCAGGGGGCCGCGGCAGAAGCGUUCACGUCGCGGCCCCUGUCAGAUUCUGGUGAAUCUGCGAAUUCUGCUGUAUAUCUC [A3G A13G A15G A35G], which self-cleavage is on record?
Its self-cleavage is 0.9.

With UAGCAGGGGGCCUCAGCAGAAGCGUUCUCGUCGCAGCCCCAGUCAGACUCUGGUGAAUCUACGAAGUCUGCUGUAUAUCUC [A3G A13U A28U U41A U48C G61A U66G] as the variant, how does the self-cleavage read?
Its self-cleavage is 0.24.

With UAGCAGGGGGCCGCAGCAGGAGCGUUCACGUCGCAGCCCCUGUUAGAUUCUGGAGAGUCUGCGAAUUCUGAUGUAUAUCUC [A3G A13G A20G C44U U54A A57G C71A] as the variant, how does the self-cleavage read?
Its self-cleavage is 0.11.

With UAGCUGGGGGCCACAGCAGAAGCCUUCACGUCGCAGCCCCUGUCAGAUUCUGGUGGAUCUGCGAAUUCUGCUGUAUAUCUC [A3G A5U G24C A56G] as the variant, how does the self-cleavage read?
The self-cleavage was 0.44.

For UAGCAGGGGGCCGCAGCAGGACCGUUCACGCCGCUGCCCCUGUCAGAUUCUGGUGAAUCUGCGAAUUCUGCUGUAUAUCUC [A3G A13G A20G G22C U31C A35U], which self-cleavage is on record?
The self-cleavage was 0.06.

With UAGCAGGGGGCCUCAGCGGAAGCGUUCACGACGCGGCCCCUGUCAGAUUCUGGUGAAUCUGCGAAUUCUGCUGUAUAUCUC [A3G A13U A18G U31A A35G] as the variant, how does the self-cleavage read?
Its self-cleavage is 0.83.

With UAGCAGGGGGCCGCAGCAGAAGCGUUCACGUCGCAGCCCCUGUCAGAUUCUGGUGAAUCUGCGAAUUCAGCUGUAUGUCUC [A3G A13G U69A A77G] as the variant, how does the self-cleavage read?
The self-cleavage was 0.61.

For UAGCUGGGGGCCACAGCAGAAGCGUUCACGUCGCAGCCCCUGUCAGAUUCUGGUGAAUCUGCGAAUUCUGCUGCAUAUCUC [A3G A5U U74C], which self-cleavage is on record?
Its self-cleavage is 1.14.

For UAGCAGGGGGCCGCAGCAGAAGCGUUCACGUCGCAGCCCCUGUCAGACUCUGGUGAAUCUGCGAAUUCUGCUGUAUAUCUC [A3G A13G U48C], which self-cleavage is on record?
Its self-cleavage is 0.31.

With UAGCAGGGGGCCGCAGCAGAAGCGUUCACGACACAGCCCCUGUCAGAUUCUGGCGAAUCUGCGAACUCUGCUGUAUAUCUC [A3G A13G U31A G33A U54C U66C] as the variant, how does the self-cleavage read?
Its self-cleavage is 0.11.

With UAGCAGGGGGCCGCAGCAGAGGCGAUCACGUCGCAGCCCCUGUCAGAUUCAGAUGAAUCUGCGAAUUCUGCUGCAUAUCUC [A3G A13G A21G U25A U51A G53A U74C] as the variant, how does the self-cleavage read?
The self-cleavage was 0.16.

With UAGCUGGGAGCCACAGCAGAAGCGUUCGCGUCGCAGCCCCUGUCAGAUUCUGGUGGAUCUGCGAAUUCUGCUGUAUAUCUC [A3G A5U G9A A28G A56G] as the variant, how does the self-cleavage read?
The self-cleavage was 0.12.

Which self-cleavage does the source give for UAGCAGGGGGCCGCAGCAGAAGCGUCCACGUCGCAGCCCCUGUCAGAUUCUGGAGAAUCUGCGAAUUCAGCAGUAUAUCUC [A3G A13G U26C U54A U69A U72A] here?
Its self-cleavage is 0.15.

Which self-cleavage does the source give for UAGCAGGGGGCCGCGGCAGAAGCGUUCACGUCGCAGCCCCUGUCAGAUUCGGGUGAGUCUGCGAAUUCUGCUGUAUAUCAC [A3G A13G A15G U51G A57G U80A] here?
Its self-cleavage is 0.5.

Which self-cleavage does the source give for UAGCAGGGGGCCGCAGCAGAAGCGUUCACGUCGCAGUCCCUGUCAGAUUCUGGUGGAUCUGCGAAUUCUGCUGCAUAUCUC [A3G A13G C37U A56G U74C] here?
Its self-cleavage is 0.21.

Which self-cleavage does the source give for UAGCAGGGGGCCUCAGCAGAAGCGUUCACGUCGCGGCCCCUGUAAGAUUCUGGUGUAUCUGCGAGUUCUGCAGUAUAUCUC [A3G A13U A35G C44A A56U A65G U72A] here?
The self-cleavage was 0.36.

With UAGCUGGGGGCCACAGCAGAAGCGCUCACGUCGCAGCCCCCGUCAGAUUCUGGUGAAUCUGCGAAUUCUGCUGUAUAUCUC [A3G A5U U25C U41C] as the variant, how does the self-cleavage read?
The self-cleavage was 0.66.

Which self-cleavage does the source give for UAGCAGGGGGCCGCAGCAGAAGCGUUCACGUCGCAGCCCCUGUCAGAUUCUGGUGAAUCUGCGGAUUCUGCUGUAUAUAUC [A3G A13G A64G C79A] here?
Its self-cleavage is 1.01.

Which self-cleavage does the source give for UAGCUGGGGGCCACAGCAGAAGCGUUCACGUCGCAGCCCAUGUCAGAUUCUGGUGAAUCUGCGAAUUCUGCUGUAUAUCUC [A3G A5U C40A] here?
The self-cleavage was 0.21.

With UAGCAGGGGGCCUCAGCAGAAGCGUUCACGUCGCGGCCCCUGUCAGAUACCGGUGGAUCUGCGAAUUCUGCUGUAUAUCUC [A3G A13U A35G U49A U51C A56G] as the variant, how does the self-cleavage read?
The self-cleavage was 1.29.

With UAGCAGGGGGCCUCAGCAGAAGCGUUCUCGUCGCAGCCCUUGUCAGAUUCUGGUGAAUCUGCGAAUUCUGCUGUAUAUCUC [A3G A13U A28U C40U] as the variant, how does the self-cleavage read?
The self-cleavage was 0.56.

With UAGCAGGGGGCCGCAGCAGAAGCGUUCAUGUCGCAGCCCCUGCCAGAUUUUCGUGAAUCUGCGAAUUCUGCUGUAUAUCUC [A3G A13G C29U U43C C50U G52C] as the variant, how does the self-cleavage read?
Its self-cleavage is 0.14.

With UAGCAGGGGGCCUCAGCAGAAGCGUUCUCGUCGCAGCCCCUGUCAGAUUCUGGUGGAUCUGCGAAUUCUGCUGUAUAUCUC [A3G A13U A28U A56G] as the variant, how does the self-cleavage read?
The self-cleavage was 0.71.

With UAGCAGGGGGCCGCAGCAGAAGCGUUCACGUCGCAGCCCCUGUCAGAUUCUGGUGAAUCUGCGGAUUCUGCUGUAUAUCCC [A3G A13G A64G U80C] as the variant, how does the self-cleavage read?
The self-cleavage was 0.54.

With UAGCAGGGGGCCGCAGCAGAAGCGUUCACGUCGCGGCCCCUGUCAGAUUCUGGUGAAUCUGCGAAUUCUGCUGUAUUUCUC [A3G A13G A35G A77U] as the variant, how does the self-cleavage read?
Its self-cleavage is 1.06.

For UAGCAGGGGGCCGCAGCAGAAGCGUACACGUCGCAGCCCCCGUCAGAUUCGGGUGAAUCUGCGAAUUCUGCUGUAUAUCUC [A3G A13G U26A U41C U51G], which self-cleavage is on record?
The self-cleavage was 0.31.

For UAGCUGGGGGCCACAGCAGAAGCGUUCACGUCGCAGCCCCUGUCAGAUUCUGGUGAAUCUGCGAAUUCUGCUGUACAUCUC [A3G A5U U76C], which self-cleavage is on record?
Its self-cleavage is 1.04.

For UAGCAGGGGGCCCCGGCAGAAGCGUUCACGUCGCAGCCCCUGUCAGAUCCUGGUGAAUCUGCGAGUUCUGCUGUAUAUCUC [A3G A13C A15G U49C A65G], which self-cleavage is on record?
The self-cleavage was 0.31.

With UAGCAGGGGGCCGCAGCAGUAGCGUUCACGUCGGAGCCCCUGUCAGAUUCUGGUGAAUCUGCGAAUUCUGCUGUAUAUCUC [A3G A13G A20U C34G] as the variant, how does the self-cleavage read?
Its self-cleavage is 0.65.

With UAGCAGGGGGCCGCAGCAGAAGCGUUCACGUCGCAGCCCCUGUCAGAUUCUGGUGUAUCUGCGAAUUCUGCUGUAUAUCUC [A3G A13G A56U] as the variant, how does the self-cleavage read?
Its self-cleavage is 0.39.

For UAGCUGGGAGCCACAGCAGAGGCGUUCGCGUCGCAGCCCCUGUCAGAUUCUGGCGAAUCUGCGAAUUCUGCAGUAUAUCUC [A3G A5U G9A A21G A28G U54C U72A], which self-cleavage is on record?
Its self-cleavage is 0.36.

For UAGCAGGGGGCCGCAGCAAGAGCGUUCACGUUGCAGCCCCUGUCAGAUUCUGGUGAAUCCGCGAAUUCUGCUGUUUAUCUC [A3G A13G G19A A20G C32U U60C A75U], which self-cleavage is on record?
Its self-cleavage is 0.06.

For UAGCAGGGGGCCGCAGCAGAAGCGUUCACCUCGCAGCCCCUGUCAGAUUCUGAUGAAUCUGCGAAUUCCGCUGUAUAUCUC [A3G A13G G30C G53A U69C], which self-cleavage is on record?
The self-cleavage was 0.33.

With UAGCUGGGGGCCACAGCAGAAGCGUUCACGACGCAGCCCCUGUCAGAUUCUGCUGAAUCUGCGAAUUCUGCUGUAUAUCCC [A3G A5U U31A G53C U80C] as the variant, how does the self-cleavage read?
The self-cleavage was 0.62.
